195 variants from a collection of fitness landscapes (doi:10.1126/science.1257360) can be followed below.

This is one part of the list.

B1: PhoQ; a variant is named by its letters at X, in order, P23837 (parent)
chain: MKKLLRLFFPLSLRVRFLLATAAVVLVLSLAYGMVALIGYSVSFDKTTFRLLRGESNLFYTLAKWENNKLHVELPENIDKQSPTMTLIYDENGQLLWAQRDVPWLMKMIQPDWLKSNGFHEIEADVNDTSLLLSGDHSIQQQLQEVREDDDDAEMTHSVAVNVYPATSRMPKLTIVVVDTIPVELKSSYMVWSWFIYVLSANLLLVIPLLWVAAWWSLRPIEALAKEVRELEEHNRELLNPATTRELTSLVRNLNRLLKSERERYDKYRTTLTDLTHSLKTPLXXLQXXLRSLRSEKMSVSDAEPVMLEQISRISQQIGYYLHRASMRGGTLLSRELHPVAPLLDNLTSALNKVYQRKGVNISLDISPEISFVGEQNDFVEVMGNVLDNACKYCLEFVEISARQTDEHLYIVVEDDGPGIPLSKREVIFDRGQRVDTLRPGQGVGLAVAREITEQYEGKIVAGESMLGGARMEVIFGRQHSAPKDE

The variants in this experiment derive from B1. As to the kind of experiment: enrichment ratio after two sorts for PhoP signalling (ratio (wild type AVST 3.29)); higher = more functional. The settings on record: with PhoP (E. coli).
For the variant TRSW, the enrichment ratio is ≤ 0.25.
As for WFTR, the figure is ≤ 0.25.
As for WYFR, the figure is ≤ 0.25; as for ESMW, ≤ 0.25; as for TYFR, ≤ 0.25.
As to AAPY, the enrichment ratio is ≤ 0.25.
Next, KCPP: ≤ 0.25.
Next, YNFY: ≤ 0.25; VCSM: 3.67.
As for IMNR, the figure is ≤ 0.25.
As to KCVN, the enrichment ratio is ≤ 0.25.
Next, ICPL: ≤ 0.25; RDCN: ≤ 0.25.
As for YTKW, the figure is ≤ 0.25; as for IVWI, ≤ 0.25; as for QQGN, ≤ 0.25.
Take GMDT: the enrichment ratio is ≤ 0.25.
LKWM: the enrichment ratio is ≤ 0.25.
Take EQMN: the enrichment ratio is ≤ 0.25.
As to VCMD, the enrichment ratio was ≤ 0.25.
Turning to PVQG, the enrichment ratio was ≤ 0.25.
In the case of AWAK, the enrichment ratio was ≤ 0.25.
On to YKGS, for which the enrichment ratio is ≤ 0.25.
Consider EPCF, for which the enrichment ratio is ≤ 0.25.
Turning to PKQE, the enrichment ratio is ≤ 0.25.
Turning to AYMY, the enrichment ratio was ≤ 0.25.
As for IINP, the figure is ≤ 0.25; as for EDGV, ≤ 0.25; as for AINQ, ≤ 0.25.
Take AEGK: the enrichment ratio was ≤ 0.25.
Take HPAG: the enrichment ratio was ≤ 0.25.
On to ESTN, for which the enrichment ratio is ≤ 0.25.
As for TPVM, the figure is ≤ 0.25; as for MINM, ≤ 0.25.
As for EANI, the figure is ≤ 0.25; as for GCVF, ≤ 0.25.
KYTY: the enrichment ratio is ≤ 0.25.
For the variant NQGM, the enrichment ratio is ≤ 0.25.
With SSSD, the enrichment ratio is ≤ 0.25.
As for HINL, the figure is ≤ 0.25; as for AFQA, ≤ 0.25.
As for TSQM, the figure is 24; as for IESR, ≤ 0.25; as for KRKI, ≤ 0.25.
As to LCPC, the enrichment ratio was ≤ 0.25.
As for KALQ, the figure is ≤ 0.25; as for NCAY, ≤ 0.25.
As for MLQV, the figure is ≤ 0.25; as for YSFV, ≤ 0.25; as for LATT, ≤ 0.25.
For VFWY, the enrichment ratio is ≤ 0.25.
Consider EIYA, for which the enrichment ratio is ≤ 0.25.
Next, PVRL: ≤ 0.25.
On to YIAS, for which the enrichment ratio came out at 0.335.
As for ISPQ, the figure is ≤ 0.25; as for AQNP, ≤ 0.25.
As for GHIG, the figure is ≤ 0.25.
VNST: the enrichment ratio was ≤ 0.25.
Next, RSHH: 0.726; YQHT: ≤ 0.25; WWAG: ≤ 0.25.
Next, ADCV: ≤ 0.25; YSGI: ≤ 0.25; ATYV: 0.444.
As for RIVR, the figure is ≤ 0.25; as for VYLN, ≤ 0.25.
As to FSSD, the enrichment ratio was ≤ 0.25.
KNQF: the enrichment ratio was ≤ 0.25.
Regarding YQET, the enrichment ratio is ≤ 0.25.
Next, RYAE: ≤ 0.25; KMKF: ≤ 0.25.
As for KYDE, the figure is ≤ 0.25.
As for QRLR, the enrichment ratio is ≤ 0.25.
As for WGRS, the figure is ≤ 0.25.
Next, QLQG: ≤ 0.25; QGNI: ≤ 0.25; LLVV: ≤ 0.25.
PACP: the enrichment ratio is ≤ 0.25.
Next, TNSF: 7.97; YFQV: ≤ 0.25.
As for KGVM, the figure is ≤ 0.25.
DSWQ: the enrichment ratio is ≤ 0.25.
Take AEIV: the enrichment ratio turned out to be 4.76.
Next, SAHP: ≤ 0.25; TEFI: 9.19.
On to TQFM, for which the enrichment ratio was 6.61.
As for YNTS, the figure is ≤ 0.25.
As for DVDY, the figure is ≤ 0.25; as for HMFL, ≤ 0.25.
As for SSWD, the figure is ≤ 0.25.
Turning to NGFQ, the enrichment ratio was ≤ 0.25.
On to QGEY, for which the enrichment ratio is ≤ 0.25.
Next, YNLQ: ≤ 0.25.
As for FCIY, the figure is ≤ 0.25; as for RCSR, ≤ 0.25.
Next, NWTM: ≤ 0.25; VFAA: ≤ 0.25.
GWIH: the enrichment ratio is ≤ 0.25.
As for PAWI, the figure is ≤ 0.25; as for LHRR, ≤ 0.25.
Next, IKAE: ≤ 0.25; KDSM: ≤ 0.25.
Regarding FNGT, the enrichment ratio is ≤ 0.25.
As for MDCR, the figure is ≤ 0.25; as for PPSK, ≤ 0.25.
As for PTSG, the figure is ≤ 0.25; as for KGTG, ≤ 0.25; as for SIAA, 10.3.
As for RLTW, the figure is ≤ 0.25; as for GGIN, ≤ 0.25.
FHIN: the enrichment ratio is ≤ 0.25.
On to WSAW, for which the enrichment ratio is ≤ 0.25.
On to GDWQ, for which the enrichment ratio was ≤ 0.25.
As for NSRC, the figure is ≤ 0.25.
For the variant EVAH, the enrichment ratio is ≤ 0.25.
Regarding KNEY, the enrichment ratio is ≤ 0.25.
For the variant DTCP, the enrichment ratio was ≤ 0.25.
As for GPLP, the figure is ≤ 0.25; as for NAEG, ≤ 0.25; as for FDVQ, ≤ 0.25.
As for MRSY, the figure is ≤ 0.25.
For the variant EMHG, the enrichment ratio is ≤ 0.25.
ESPT: the enrichment ratio was ≤ 0.25.
Regarding PNSS, the enrichment ratio is ≤ 0.25.
With KTDI, the enrichment ratio was ≤ 0.25.
Turning to SIIP, the enrichment ratio was ≤ 0.25.
As for SFMF, the figure is ≤ 0.25.
Next, HKYP: ≤ 0.25; GYNS: ≤ 0.25.
Next, SSGS: 8.94; IEAV: ≤ 0.25; HDLS: ≤ 0.25.
With LGQC, the enrichment ratio is ≤ 0.25.
As for KFNG, the enrichment ratio was ≤ 0.25.
As for QCPV, the figure is ≤ 0.25.
As for LSAN, the figure is ≤ 0.25; as for MRWG, ≤ 0.25.
In the case of FGGG, the enrichment ratio was ≤ 0.25.
PCWK: the enrichment ratio is ≤ 0.25.
On to LVMC, for which the enrichment ratio was ≤ 0.25.
Next, AVTF: 11.4; RSEY: ≤ 0.25.
TAGI: the enrichment ratio came out at 13.1.
Turning to ITET, the enrichment ratio is ≤ 0.25.
Turning to DPHK, the enrichment ratio is ≤ 0.25.
Next, GEWF: ≤ 0.25.
Regarding LAEW, the enrichment ratio was ≤ 0.25.
As for HQTF, the figure is ≤ 0.25; as for LNVC, ≤ 0.25.
Next, APCR: ≤ 0.25; EVDL: ≤ 0.25; VHRI: ≤ 0.25.
Next, PWGL: ≤ 0.25; RWVG: ≤ 0.25.
On to KHPT, for which the enrichment ratio is ≤ 0.25.
With NVYI, the enrichment ratio was ≤ 0.25.
In the case of YNTA, the enrichment ratio was ≤ 0.25.
Regarding SIEI, the enrichment ratio is ≤ 0.25.
As for QGYR, the figure is ≤ 0.25; as for LGLT, ≤ 0.25.
As to QKTK, the enrichment ratio is ≤ 0.25.
Regarding PQAG, the enrichment ratio was ≤ 0.25.
Next, DCLQ: ≤ 0.25; SMVE: 5.68; ALKG: ≤ 0.25.
As for HMYV, the enrichment ratio is ≤ 0.25.
Regarding QEII, the enrichment ratio is ≤ 0.25.
With LILF, the enrichment ratio was ≤ 0.25.
WVCP: the enrichment ratio was ≤ 0.25.
Take QICD: the enrichment ratio was ≤ 0.25.
In the case of MERA, the enrichment ratio was ≤ 0.25.
Take YWGV: the enrichment ratio is ≤ 0.25.
ADKQ: the enrichment ratio was ≤ 0.25.
For the variant DWQP, the enrichment ratio was ≤ 0.25.
As to VFPH, the enrichment ratio is ≤ 0.25.
Take LTEN: the enrichment ratio was ≤ 0.25.
EDLF: the enrichment ratio is ≤ 0.25.
With VVRP, the enrichment ratio was ≤ 0.25.
On to RGPQ, for which the enrichment ratio is ≤ 0.25.
As for EPCY, the figure is ≤ 0.25.
As for WFQK, the figure is ≤ 0.25; as for NSLR, ≤ 0.25; as for GNKT, ≤ 0.25.
With YSEL, the enrichment ratio was ≤ 0.25.
As for EISD, the figure is ≤ 0.25.
Next, HMLK: ≤ 0.25.
Take GKET: the enrichment ratio was ≤ 0.25.
As for HYNW, the figure is ≤ 0.25; as for DQVK, ≤ 0.25; as for LYCP, ≤ 0.25.
As for LCKS, the figure is ≤ 0.25.
On to HFAR, for which the enrichment ratio was ≤ 0.25.
As for FRNS, the figure is 0.333.
As for GPQG, the figure is ≤ 0.25; as for FSKL, ≤ 0.25.
